These results are taken from publication PMC3308992.

Amino acid sequences for entries named in this document (tags omitted). A change or cut given only in a name is not applied to a line headed by its entry. Chains listed by the source or under a name are the forms on record and can include a tag or linker. Residues count along the entry.
UniProt P60322: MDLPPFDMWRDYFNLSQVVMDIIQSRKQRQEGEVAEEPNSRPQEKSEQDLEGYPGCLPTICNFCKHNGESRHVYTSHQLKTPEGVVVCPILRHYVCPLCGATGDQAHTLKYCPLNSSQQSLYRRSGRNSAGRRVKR
Flag-tagged NANOS2 with the first 5 amino acids deleted: residues 6-136 of P60322
Flag-tagged NANOS2-ΔN10: residues 11-136 of P60322
Flag-tagged NANOS2 deletion mutant lacking residues 6–10 (P60322, form named): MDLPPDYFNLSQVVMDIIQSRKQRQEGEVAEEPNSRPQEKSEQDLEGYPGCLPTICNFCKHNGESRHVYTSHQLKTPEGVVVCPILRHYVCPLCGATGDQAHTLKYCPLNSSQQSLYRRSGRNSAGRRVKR
UniProt Q8BH15: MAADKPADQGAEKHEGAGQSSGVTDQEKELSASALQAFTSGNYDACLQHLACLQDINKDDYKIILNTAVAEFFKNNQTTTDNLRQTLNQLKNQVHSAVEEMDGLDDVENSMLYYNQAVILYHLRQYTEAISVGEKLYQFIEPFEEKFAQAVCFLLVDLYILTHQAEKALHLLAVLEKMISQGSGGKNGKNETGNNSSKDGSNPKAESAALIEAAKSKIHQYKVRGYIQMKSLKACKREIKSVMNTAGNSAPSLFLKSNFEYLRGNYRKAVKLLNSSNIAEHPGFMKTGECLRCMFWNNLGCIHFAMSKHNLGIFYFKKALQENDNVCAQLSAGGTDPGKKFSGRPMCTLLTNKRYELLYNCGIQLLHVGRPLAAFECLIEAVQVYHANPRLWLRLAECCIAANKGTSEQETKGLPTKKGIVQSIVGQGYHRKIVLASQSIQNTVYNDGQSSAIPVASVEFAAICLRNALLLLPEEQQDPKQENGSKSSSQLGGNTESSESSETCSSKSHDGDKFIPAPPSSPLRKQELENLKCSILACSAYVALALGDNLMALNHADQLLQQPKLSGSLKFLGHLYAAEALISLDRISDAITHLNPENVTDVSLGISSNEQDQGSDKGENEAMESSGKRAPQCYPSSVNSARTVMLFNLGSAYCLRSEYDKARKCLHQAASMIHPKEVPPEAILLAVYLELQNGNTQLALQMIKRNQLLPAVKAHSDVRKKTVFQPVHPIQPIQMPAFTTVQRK
UniProt Q8K0V4: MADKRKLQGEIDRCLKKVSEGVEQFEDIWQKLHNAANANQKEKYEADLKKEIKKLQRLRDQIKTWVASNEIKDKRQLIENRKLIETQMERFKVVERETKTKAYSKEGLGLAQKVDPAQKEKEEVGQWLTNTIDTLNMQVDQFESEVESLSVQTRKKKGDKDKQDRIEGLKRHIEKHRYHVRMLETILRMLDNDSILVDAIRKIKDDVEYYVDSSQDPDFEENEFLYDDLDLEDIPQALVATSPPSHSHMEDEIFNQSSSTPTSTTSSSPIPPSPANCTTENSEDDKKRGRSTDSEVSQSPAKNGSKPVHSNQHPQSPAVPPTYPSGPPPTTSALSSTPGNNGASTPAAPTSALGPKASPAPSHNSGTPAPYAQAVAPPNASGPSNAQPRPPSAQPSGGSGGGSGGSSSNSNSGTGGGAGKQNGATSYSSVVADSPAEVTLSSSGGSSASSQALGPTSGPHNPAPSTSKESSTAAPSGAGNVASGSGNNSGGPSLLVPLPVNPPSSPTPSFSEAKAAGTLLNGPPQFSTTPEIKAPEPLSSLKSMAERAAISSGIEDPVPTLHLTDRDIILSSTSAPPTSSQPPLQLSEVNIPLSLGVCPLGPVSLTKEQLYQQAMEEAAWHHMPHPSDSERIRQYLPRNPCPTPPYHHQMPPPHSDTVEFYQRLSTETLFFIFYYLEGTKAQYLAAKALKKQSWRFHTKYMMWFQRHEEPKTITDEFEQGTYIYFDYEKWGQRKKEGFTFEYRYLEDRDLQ
UniProt Q8C5L3: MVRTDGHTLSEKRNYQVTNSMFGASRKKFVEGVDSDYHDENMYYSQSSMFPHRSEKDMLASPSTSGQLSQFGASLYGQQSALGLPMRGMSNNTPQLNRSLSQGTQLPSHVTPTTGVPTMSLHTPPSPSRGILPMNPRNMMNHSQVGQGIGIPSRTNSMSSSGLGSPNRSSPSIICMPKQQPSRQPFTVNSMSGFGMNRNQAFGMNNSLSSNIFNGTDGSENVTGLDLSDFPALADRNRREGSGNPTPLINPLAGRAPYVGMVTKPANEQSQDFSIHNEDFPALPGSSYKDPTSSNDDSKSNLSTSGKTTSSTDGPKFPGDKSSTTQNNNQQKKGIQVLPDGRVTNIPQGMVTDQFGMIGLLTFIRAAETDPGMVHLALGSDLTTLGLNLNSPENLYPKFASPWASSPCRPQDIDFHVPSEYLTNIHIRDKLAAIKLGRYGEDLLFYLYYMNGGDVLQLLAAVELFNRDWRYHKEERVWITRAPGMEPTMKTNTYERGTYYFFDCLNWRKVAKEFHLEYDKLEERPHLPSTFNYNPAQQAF
UniProt Q8K3P5: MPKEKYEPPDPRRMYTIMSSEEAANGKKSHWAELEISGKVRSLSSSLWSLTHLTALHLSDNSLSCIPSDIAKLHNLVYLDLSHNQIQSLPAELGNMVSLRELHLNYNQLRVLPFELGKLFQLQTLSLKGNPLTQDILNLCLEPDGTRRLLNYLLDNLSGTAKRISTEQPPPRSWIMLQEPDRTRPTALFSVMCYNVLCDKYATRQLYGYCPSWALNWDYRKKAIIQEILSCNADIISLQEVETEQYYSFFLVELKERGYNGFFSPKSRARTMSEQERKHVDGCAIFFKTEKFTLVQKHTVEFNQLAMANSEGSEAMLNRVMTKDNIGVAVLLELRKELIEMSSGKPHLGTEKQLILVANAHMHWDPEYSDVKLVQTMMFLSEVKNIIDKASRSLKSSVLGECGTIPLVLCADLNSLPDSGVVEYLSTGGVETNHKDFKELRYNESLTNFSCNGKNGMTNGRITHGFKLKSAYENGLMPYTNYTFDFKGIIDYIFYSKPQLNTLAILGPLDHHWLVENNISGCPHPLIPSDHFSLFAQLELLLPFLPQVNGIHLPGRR
UniProt A5YKK6: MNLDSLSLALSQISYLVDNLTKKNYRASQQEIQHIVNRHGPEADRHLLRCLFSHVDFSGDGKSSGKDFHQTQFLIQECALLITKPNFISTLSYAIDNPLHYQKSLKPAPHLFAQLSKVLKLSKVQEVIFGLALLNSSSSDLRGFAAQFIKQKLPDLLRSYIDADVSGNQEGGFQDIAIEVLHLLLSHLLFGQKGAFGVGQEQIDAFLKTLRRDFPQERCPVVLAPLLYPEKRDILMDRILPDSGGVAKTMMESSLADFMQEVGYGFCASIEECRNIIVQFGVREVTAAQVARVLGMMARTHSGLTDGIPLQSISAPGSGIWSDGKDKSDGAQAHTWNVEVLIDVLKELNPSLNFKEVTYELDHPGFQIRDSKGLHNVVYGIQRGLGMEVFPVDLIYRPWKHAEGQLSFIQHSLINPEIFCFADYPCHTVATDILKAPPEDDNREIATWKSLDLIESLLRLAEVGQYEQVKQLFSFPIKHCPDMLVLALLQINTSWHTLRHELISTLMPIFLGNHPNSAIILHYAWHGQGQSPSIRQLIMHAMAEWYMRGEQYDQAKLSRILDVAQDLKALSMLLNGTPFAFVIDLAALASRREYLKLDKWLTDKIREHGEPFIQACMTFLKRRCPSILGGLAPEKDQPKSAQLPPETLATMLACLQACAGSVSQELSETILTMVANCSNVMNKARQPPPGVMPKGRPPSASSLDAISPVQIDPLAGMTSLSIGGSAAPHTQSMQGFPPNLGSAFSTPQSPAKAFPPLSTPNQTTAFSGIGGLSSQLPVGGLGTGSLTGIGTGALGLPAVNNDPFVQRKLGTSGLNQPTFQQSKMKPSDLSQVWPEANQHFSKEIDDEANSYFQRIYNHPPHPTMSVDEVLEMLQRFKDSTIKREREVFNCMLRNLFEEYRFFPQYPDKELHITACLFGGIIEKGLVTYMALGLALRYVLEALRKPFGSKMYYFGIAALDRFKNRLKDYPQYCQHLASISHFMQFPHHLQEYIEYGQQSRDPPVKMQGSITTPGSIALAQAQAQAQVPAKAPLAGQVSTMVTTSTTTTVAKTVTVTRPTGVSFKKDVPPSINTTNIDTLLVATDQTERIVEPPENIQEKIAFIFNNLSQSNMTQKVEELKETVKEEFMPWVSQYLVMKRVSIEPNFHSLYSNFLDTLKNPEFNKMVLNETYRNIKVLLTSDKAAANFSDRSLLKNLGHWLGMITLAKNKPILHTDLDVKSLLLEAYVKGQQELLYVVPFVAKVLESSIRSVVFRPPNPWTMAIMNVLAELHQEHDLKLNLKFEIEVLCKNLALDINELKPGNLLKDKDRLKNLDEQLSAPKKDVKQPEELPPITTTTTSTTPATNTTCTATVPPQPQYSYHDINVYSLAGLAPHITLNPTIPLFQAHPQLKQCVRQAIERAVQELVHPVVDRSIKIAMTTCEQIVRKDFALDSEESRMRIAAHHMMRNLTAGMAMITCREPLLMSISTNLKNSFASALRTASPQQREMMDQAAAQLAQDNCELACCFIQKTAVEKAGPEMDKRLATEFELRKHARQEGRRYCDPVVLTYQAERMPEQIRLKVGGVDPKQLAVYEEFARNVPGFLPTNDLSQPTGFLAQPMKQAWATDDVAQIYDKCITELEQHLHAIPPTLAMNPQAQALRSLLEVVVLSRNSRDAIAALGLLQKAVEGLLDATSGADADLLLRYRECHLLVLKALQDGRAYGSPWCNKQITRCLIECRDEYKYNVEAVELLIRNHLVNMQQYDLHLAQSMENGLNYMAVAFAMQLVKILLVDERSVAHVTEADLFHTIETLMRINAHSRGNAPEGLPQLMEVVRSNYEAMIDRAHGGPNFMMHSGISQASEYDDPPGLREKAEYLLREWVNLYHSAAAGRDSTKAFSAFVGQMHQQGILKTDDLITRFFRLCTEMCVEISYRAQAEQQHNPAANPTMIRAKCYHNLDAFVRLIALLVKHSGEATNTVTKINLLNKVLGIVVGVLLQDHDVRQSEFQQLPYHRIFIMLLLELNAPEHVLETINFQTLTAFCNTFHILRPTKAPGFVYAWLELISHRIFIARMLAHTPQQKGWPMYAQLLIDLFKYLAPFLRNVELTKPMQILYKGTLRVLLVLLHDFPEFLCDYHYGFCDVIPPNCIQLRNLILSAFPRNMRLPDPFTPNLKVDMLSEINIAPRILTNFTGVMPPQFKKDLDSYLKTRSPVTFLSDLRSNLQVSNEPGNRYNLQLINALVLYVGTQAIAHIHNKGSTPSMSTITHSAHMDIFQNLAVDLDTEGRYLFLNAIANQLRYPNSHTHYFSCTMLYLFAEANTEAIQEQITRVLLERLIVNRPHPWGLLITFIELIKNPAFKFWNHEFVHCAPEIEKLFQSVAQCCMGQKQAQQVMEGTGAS
UniProt O75175: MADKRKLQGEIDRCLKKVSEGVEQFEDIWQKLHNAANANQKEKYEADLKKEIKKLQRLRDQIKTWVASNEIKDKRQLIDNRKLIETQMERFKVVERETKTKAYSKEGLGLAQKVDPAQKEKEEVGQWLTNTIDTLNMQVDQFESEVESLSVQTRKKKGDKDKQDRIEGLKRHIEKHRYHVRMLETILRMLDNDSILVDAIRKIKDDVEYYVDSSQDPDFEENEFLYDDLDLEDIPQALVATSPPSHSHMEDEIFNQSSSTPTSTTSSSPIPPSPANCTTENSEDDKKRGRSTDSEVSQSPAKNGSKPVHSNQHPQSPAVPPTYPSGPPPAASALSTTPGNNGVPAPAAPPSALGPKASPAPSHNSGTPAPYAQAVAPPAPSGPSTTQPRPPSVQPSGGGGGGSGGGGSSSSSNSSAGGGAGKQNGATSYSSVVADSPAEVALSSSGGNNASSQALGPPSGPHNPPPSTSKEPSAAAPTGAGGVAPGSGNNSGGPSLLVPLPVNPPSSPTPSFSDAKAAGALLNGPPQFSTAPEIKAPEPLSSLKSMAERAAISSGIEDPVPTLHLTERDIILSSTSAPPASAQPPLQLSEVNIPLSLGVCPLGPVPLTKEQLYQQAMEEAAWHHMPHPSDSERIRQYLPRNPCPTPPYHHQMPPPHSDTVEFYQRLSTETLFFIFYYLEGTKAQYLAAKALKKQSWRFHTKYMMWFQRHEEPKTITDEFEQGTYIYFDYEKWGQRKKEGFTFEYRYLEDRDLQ
UniProt Q9UIV1: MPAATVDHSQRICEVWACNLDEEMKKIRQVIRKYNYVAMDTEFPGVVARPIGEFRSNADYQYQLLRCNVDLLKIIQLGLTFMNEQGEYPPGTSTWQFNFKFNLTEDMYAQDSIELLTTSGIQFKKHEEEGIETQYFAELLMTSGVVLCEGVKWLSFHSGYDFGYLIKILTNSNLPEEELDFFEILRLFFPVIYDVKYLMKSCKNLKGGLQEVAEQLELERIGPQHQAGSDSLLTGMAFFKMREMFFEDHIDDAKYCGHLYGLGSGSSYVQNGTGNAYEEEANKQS
UniProt Q92600: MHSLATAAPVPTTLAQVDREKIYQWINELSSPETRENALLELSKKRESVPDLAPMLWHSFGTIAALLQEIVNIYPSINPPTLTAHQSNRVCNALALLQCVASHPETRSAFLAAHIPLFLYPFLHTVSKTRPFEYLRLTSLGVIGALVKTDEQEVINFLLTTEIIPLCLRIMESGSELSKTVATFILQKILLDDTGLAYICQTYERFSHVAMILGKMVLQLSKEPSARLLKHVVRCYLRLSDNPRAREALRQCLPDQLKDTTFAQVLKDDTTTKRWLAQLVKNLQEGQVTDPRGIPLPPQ

These are yes or no findings as the source states them, for the method shown. In cells and extracts the contact can be indirect. Some entries that bind do so weakly or less than the wild type. For part of these data: Tags and fused reporters may be left off the sequences shown.

The target of assay [1] is Flag-tagged NANOS2-ΔN10 (mouse) (UniProt P60322). Briefly: co-IP; Flag-tagged NANOS2 or deletion mutants precipitated with anti-FLAG M2 affinity gel from extracts of HeLa cells co-transfected with 3×HA-Cnot6; 50 mM Tris-HCl pH 7.4, 150 mM NaCl, 0.5% NP-40; 3 h at 4°C; western blotting. A general note: Immunoblotting shows a protein as a band on a membrane.
Assay [2] addresses Flag-tagged NANOS2 deletion mutant lacking residues 6–10 (mouse) (UniProt P60322). The description is as above.
Assay [3] concerns the target Flag-tagged full length NANOS2 (mouse) (UniProt P60322). The description is as above.
The target in assay [4] is Flag-tagged NANOS2 with the first 5 amino acids deleted (mouse) (UniProt P60322). Described as above.
The next assay has as its target GST-fused CNOT6L (mouse) (UniProt Q8VEG6). Briefly: pull-down; E. coli extracts expressing GST-fused CNOT proteins mixed with 1–5 mg purified MBP fusion, 2 h at 4°C, then glutathione-sepharose 4FF; 25 mM HEPES-KOH pH 7.4, 150 mM NaCl, 0.1% NP-40; washed with binding buffer supplemented with 350 mM NaCl; anti-MBP western blotting; only the binder purified.
Another assay addresses T1, GST-fused CNOT4 (mouse) (UniProt Q8BT14).
T1 sequence: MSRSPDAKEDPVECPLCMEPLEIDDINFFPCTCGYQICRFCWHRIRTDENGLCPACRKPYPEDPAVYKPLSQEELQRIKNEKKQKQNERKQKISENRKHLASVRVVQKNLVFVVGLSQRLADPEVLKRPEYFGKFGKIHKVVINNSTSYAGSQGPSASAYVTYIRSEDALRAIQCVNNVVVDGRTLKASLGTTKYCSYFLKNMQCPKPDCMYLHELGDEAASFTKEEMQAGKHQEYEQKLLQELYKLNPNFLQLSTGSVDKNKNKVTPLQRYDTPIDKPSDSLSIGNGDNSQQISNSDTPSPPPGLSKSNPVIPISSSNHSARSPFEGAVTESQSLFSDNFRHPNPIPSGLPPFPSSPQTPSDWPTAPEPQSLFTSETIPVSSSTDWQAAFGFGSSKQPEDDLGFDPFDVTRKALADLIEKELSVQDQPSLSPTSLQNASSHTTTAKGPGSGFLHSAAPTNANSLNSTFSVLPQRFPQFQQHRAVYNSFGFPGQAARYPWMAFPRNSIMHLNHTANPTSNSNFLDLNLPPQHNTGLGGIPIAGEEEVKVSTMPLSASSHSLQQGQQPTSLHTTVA
Described as above.

A further assay deals with GST-fused CNOT10 (mouse) (UniProt Q8BH15). The assay is described as above.
In another assay the target is GST-fused CNOT9 (mouse) (UniProt Q9JKY0). The description is as above.
A further assay has as its target GST-fused CNOT3 (mouse) (UniProt Q8K0V4). Described as above.
A further assay addresses GST-fused CNOT2 (mouse) (UniProt Q8C5L3). The assay is described as above.
A further assay has as its target GST-fused CNOT6 (mouse) (UniProt Q8K3P5). Described as above.

Take “CNOT1 (endogenous, HeLa) (from UniProt A5YKK6 1-2376)”: the binding result in assay [1] is recorded as “no binding”; in [2], “binds weakly”; in assay [3], “binds”; in assay [4], “binds”.

“CNOT3 (endogenous, HeLa) (from UniProt O75175 1-753)”: the binding result in [1] is “no binding”.

Consider “CNOT7 (endogenous, HeLa) (from UniProt Q9UIV1 1-285)”, for which, in [1], the binding result was “no binding”.

As for “CNOT9 (endogenous, HeLa) (from UniProt Q92600 1-299)”, the binding entry in assay [1] is on record as “no binding”.

For “HA-tagged CNOT6 (from UniProt Q8K3P5 1-557)”, in [1], the binding result is listed as “no binding”.

Regarding MBP-NANOS2 (from UniProt P60322 1-136), the binding result with GST-fused CNOT6L (mouse), with GST-fused CNOT4 (mouse), with GST-fused CNOT10 (mouse), with GST-fused CNOT9 (mouse), in the assay with GST-fused CNOT3 (mouse) and with GST-fused CNOT2 (mouse) was “no binding (tested: 1–5 mg of MBP-NANOS2)” throughout. Also, the binding result in the assay with GST-fused CNOT6 (mouse) is “no binding (tested: 1–5 mg of MBP-NANOS2)”.
